For 20 molecules, binding signal results are on record in article PMC9911399, “Two distinct binding modes provide the RNA-binding protein RbFox with extraordinary sequence specificity”.

Positions count from the first letter of the chain named. The list shows a part of the results.

B1: AUCAGCG (DNA:RNA)
RNA: GGGAGACCGGAAUUCAGAUUGUCCAUCAGCGUUAAAUCCCGUCGUAGCCACCA
DNA 1: CAATCTGAATTCCGGTCTCCC
DNA 2: TGGTGGCTACGACGGGATT
B2: UAAUGGU (DNA:RNA)
RNA: B1 RNA with A25U, U26A, C27A, A28U, C30G, G31U
DNA 1: CAATCTGAATTCCGGTCTCCC
DNA 2: TGGTGGCTACGACGGGATT
B3: AGCCCUA (DNA:RNA)
RNA: B1 RNA with U26G, A28C, G29C, C30U, G31A
DNA 1: CAATCTGAATTCCGGTCTCCC
DNA 2: TGGTGGCTACGACGGGATT
B4: UUUGGGC (DNA:RNA)
RNA: B1 RNA with A25U, C27U, A28G, C30G, G31C
DNA 1: CAATCTGAATTCCGGTCTCCC
DNA 2: TGGTGGCTACGACGGGATT
B5: ACAUCUA (DNA:RNA)
RNA: B1 RNA with U26C, C27A, A28U, G29C, C30U, G31A
DNA 1: CAATCTGAATTCCGGTCTCCC
DNA 2: TGGTGGCTACGACGGGATT
B6: CAAAUCG (DNA:RNA)
RNA: B1 RNA with A25C, U26A, C27A, G29U
DNA 1: CAATCTGAATTCCGGTCTCCC
DNA 2: TGGTGGCTACGACGGGATT
B7: GCGGCAA (DNA:RNA)
RNA: GGGAGACCGGAAUUCAGAUUGUCCGCGGCAAUUAAAUCCCGUCGUAGCCACCA
DNA 1: CAATCTGAATTCCGGTCTCCC
DNA 2: TGGTGGCTACGACGGGATT
B8: UACUGCG (DNA:RNA)
RNA: B1 RNA with A25U, U26A, A28U
DNA 1: CAATCTGAATTCCGGTCTCCC
DNA 2: TGGTGGCTACGACGGGATT
B9: GGGCUAG (DNA:RNA)
RNA: B7 RNA with C26G, G28C, C29U, A31G
DNA 1: CAATCTGAATTCCGGTCTCCC
DNA 2: TGGTGGCTACGACGGGATT
B10: GCUGUCC (DNA:RNA)
RNA: B7 RNA with G27U, C29U, A30C, A31C
DNA 1: CAATCTGAATTCCGGTCTCCC
DNA 2: TGGTGGCTACGACGGGATT
B11: AACUAAU (DNA:RNA)
RNA: B1 RNA with U26A, A28U, G29A, C30A, G31U
DNA 1: CAATCTGAATTCCGGTCTCCC
DNA 2: TGGTGGCTACGACGGGATT
B12: GUAUAAU (DNA:RNA)
RNA: B7 RNA with C26U, G27A, G28U, C29A, A31U
DNA 1: CAATCTGAATTCCGGTCTCCC
DNA 2: TGGTGGCTACGACGGGATT
B13: CCAUAAA (DNA:RNA)
RNA: B7 RNA with G25C, G27A, G28U, C29A
DNA 1: CAATCTGAATTCCGGTCTCCC
DNA 2: TGGTGGCTACGACGGGATT
B14: GAGAUUU (DNA:RNA)
RNA: B7 RNA with C26A, G28A, C29U, A30U, A31U
DNA 1: CAATCTGAATTCCGGTCTCCC
DNA 2: TGGTGGCTACGACGGGATT
B15: UGUACGA (DNA:RNA)
RNA: B7 RNA with G25U, C26G, G27U, G28A, A30G
DNA 1: CAATCTGAATTCCGGTCTCCC
DNA 2: TGGTGGCTACGACGGGATT
B16: ACAUGGA (DNA:RNA)
RNA: B1 RNA with U26C, C27A, A28U, C30G, G31A
DNA 1: CAATCTGAATTCCGGTCTCCC
DNA 2: TGGTGGCTACGACGGGATT
B17: UUAGCGA (DNA:RNA)
RNA: B7 RNA with G25U, C26U, G27A, A30G
DNA 1: CAATCTGAATTCCGGTCTCCC
DNA 2: TGGTGGCTACGACGGGATT
B18: GUGCCAG (DNA:RNA)
RNA: B7 RNA with C26U, G28C, A31G
DNA 1: CAATCTGAATTCCGGTCTCCC
DNA 2: TGGTGGCTACGACGGGATT
B19: GAACCGU (DNA:RNA)
RNA: B7 RNA with C26A, G27A, G28C, A30G, A31U
DNA 1: CAATCTGAATTCCGGTCTCCC
DNA 2: TGGTGGCTACGACGGGATT
B20: UGUGUAG (DNA:RNA)
RNA: B7 RNA with G25U, C26G, G27U, C29U, A31G
DNA 1: CAATCTGAATTCCGGTCTCCC
DNA 2: TGGTGGCTACGACGGGATT

The target of this assay is T1, RBFOX1 RRM (Homo sapiens, UniProt Q9NWB1 109-208).
T1 sequence: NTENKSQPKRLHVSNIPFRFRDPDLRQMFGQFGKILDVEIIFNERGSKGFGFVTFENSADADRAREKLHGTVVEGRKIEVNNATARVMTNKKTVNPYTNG
As to the kind of experiment: EMSA; HiTS-Eq, 1 nM pool, 10 min; buffer printed only for the single-RNA assays: 10 mM Tris pH 7.5, 150 mM NaCl, 3.4 mM EDTA, 0.001% NP-40, 30 C. The conditions noted are these: tags: His6 N-terminal (pET28a); label: 5' 32P. A digest of the protocol:
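Purified RbFox RRM, wild type or mutant, was incubated for 10 min in 50 µL with 1 nM of a 5′-radiolabelled RNA pool carrying 7 randomized nucleotides, whose flanks were annealed to DNA oligonucleotides, over a series of increasing protein concentrations. Unbound RNA was resolved on 8% native PAGE, cut out, reverse-transcribed, barcoded by PCR and sequenced on an Illumina HiSeq 2500. Relative association constants were derived from changes in read counts for each RNA species versus the control reaction and normalised to the cognate motif.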
On the technique in general: A gel shift assay detects complexes by their altered migration in electrophoresis.
As for B1, the binding signal is 0.00651 KA relative to UGCAUGU. With B2, the binding signal was 0.0142 KA relative to UGCAUGU. On to B3, for which the binding signal was 0.0003 KA relative to UGCAUGU. Turning to B4, the binding signal was 0.00539 KA relative to UGCAUGU. As for B5, the binding signal was 0.000793 KA relative to UGCAUGU. In the case of B6, the binding signal is 0.000981 KA relative to UGCAUGU. B7: the binding signal was 0.0181 KA relative to UGCAUGU.

Consider B8, for which the binding signal is 0.0232 KA relative to UGCAUGU. B9: the binding signal was 0.0339 KA relative to UGCAUGU. Consider B10, for which the binding signal was 0.0163 KA relative to UGCAUGU. On to B11, for which the binding signal is 0.000777 KA relative to UGCAUGU. Turning to B12, the binding signal is 0.00264 KA relative to UGCAUGU. Take B13: the binding signal was 0.000634 KA relative to UGCAUGU. The result for B14 reads 0.0136 KA relative to UGCAUGU; that for B15, 0.0149 KA relative to UGCAUGU. With B16, the binding signal is 0.00217 KA relative to UGCAUGU. As to B17, the binding signal was 0.0093 KA relative to UGCAUGU.

As to B18, the binding signal was 0.0231 KA relative to UGCAUGU. The result for B19 reads 0.00528 KA relative to UGCAUGU; that for B20, 0.018 KA relative to UGCAUGU.
